Consider 55 molecules from PMC4336329 (PLoS ONE, 2015).

In all, about 310,000 compounds went through this assay and about 14,000 (4.5%) showed an effect of 50% or more. Effects have a minus sign here. The list shows a part of the results.
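Further: peak tail current of the secondary pulse compared with the same well before compound.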

human ether-à-go-go-related gene (hERG) potassium channel, sequence (Q12809 whole entry, looked up): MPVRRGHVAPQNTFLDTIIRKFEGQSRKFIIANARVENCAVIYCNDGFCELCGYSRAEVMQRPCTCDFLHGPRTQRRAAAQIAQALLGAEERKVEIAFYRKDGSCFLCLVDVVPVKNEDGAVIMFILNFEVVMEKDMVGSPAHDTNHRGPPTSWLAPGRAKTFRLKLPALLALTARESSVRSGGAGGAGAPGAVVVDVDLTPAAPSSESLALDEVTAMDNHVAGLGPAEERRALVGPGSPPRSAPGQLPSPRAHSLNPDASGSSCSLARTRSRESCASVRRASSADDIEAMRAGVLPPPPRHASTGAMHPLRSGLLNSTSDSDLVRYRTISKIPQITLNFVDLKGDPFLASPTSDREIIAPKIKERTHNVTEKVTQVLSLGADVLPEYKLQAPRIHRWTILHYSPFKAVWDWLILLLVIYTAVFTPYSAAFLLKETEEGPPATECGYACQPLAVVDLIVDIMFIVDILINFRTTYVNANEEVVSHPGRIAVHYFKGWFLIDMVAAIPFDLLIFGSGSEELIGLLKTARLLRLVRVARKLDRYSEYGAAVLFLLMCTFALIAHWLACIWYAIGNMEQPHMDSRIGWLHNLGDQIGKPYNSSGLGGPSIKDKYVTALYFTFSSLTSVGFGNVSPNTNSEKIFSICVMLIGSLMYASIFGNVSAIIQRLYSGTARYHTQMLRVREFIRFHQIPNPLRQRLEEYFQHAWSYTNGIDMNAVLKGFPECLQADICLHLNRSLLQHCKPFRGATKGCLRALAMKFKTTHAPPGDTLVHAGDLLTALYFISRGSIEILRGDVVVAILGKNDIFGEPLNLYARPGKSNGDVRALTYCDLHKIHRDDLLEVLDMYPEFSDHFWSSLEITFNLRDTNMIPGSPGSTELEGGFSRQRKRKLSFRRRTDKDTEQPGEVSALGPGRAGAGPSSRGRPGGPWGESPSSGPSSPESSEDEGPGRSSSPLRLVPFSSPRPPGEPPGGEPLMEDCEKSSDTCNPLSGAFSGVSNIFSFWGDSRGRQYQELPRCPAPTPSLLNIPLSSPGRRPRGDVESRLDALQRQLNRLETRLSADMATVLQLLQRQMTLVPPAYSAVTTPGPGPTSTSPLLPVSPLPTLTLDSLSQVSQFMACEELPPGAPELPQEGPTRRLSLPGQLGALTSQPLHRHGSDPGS

The assay has as its target human ether-à-go-go-related gene (hERG) potassium channel (human, UniProt Q12809). Description: primary screen, population patch clamp on CHO cells stably expressing hERG.
`CC/C(=N\NC(=O)c1ccccc1Cl)c1ccc(Br)s1`: the “hERG current change (%, negative = inhibition) at 10uM” value is listed as 4.04%.

In the case of `CCCCSc1nc(NCc2ccco2)c2c3c(sc2n1)COC(C)(C)C3`, the “hERG current change (%, negative = inhibition) at 10uM” value is on record as -8.98%. `CN(C(=O)Cc1ccc(Cl)c(Cl)c1)C(CN1CCCC1)c1cccc(OCC(=O)O)c1.Cl` (stereo not shown): the “hERG current change (%, negative = inhibition) at 10uM” value was 7.11%. Turning to `Cn1c(=O)c2c(nc(SCc3cccnc3)n2Cc2ccccc2)n(C)c1=O`, the “hERG current change (%, negative = inhibition) at 10uM” value is listed as -17.6%. To `COc1ccccc1CC(=O)N1CCN(S(=O)(=O)c2ccccc2)CC1` belongs -7.82%; to `CN1C(=O)C(O)(C2COC(C)(C)CC2=O)c2cc(Br)ccc21` (stereo not shown), -21%. For `Cc1cc(C(=O)NCc2cc(C)n(C)n2)sc1-c1ccccc1`, the “hERG current change (%, negative = inhibition) at 10uM” value is recorded as -13.7%.

Turning to `CCc1nnc(SCC(=O)Nc2ccc(N3CCOCC3)cc2)n1C`, the “hERG current change (%, negative = inhibition) at 10uM” value is on record as 13.5%.

For the molecule `COc1cccc(NC(=O)CC2C(=O)NCCN2C(=S)Nc2ccc(F)cc2)c1` (stereo not shown), the “hERG current change (%, negative = inhibition) at 10uM” value is reported as 15.2%. `Cc1cccc(C)c1NC(=O)NC1(C(=O)NCC2CCCO2)CCCCC1` (stereo not shown): the “hERG current change (%, negative = inhibition) at 10uM” value worked out at 11.2%. For `CCOC(=O)N1CCN(c2nc(=S)n(-c3ccccc3)c(C)c2C(C)=O)CC1`, the “hERG current change (%, negative = inhibition) at 10uM” value is on record as -2.56%. On to `O=C1CCCCCN1CSc1nc2ccccc2s1`, for which the “hERG current change (%, negative = inhibition) at 10uM” value was -5.65%. Take `CCOc1ccccc1CN1CCN(C2CCSCC2)CC1CCO` (stereo not shown): the “hERG current change (%, negative = inhibition) at 10uM” value was -25.9%. `CCCCN(C(=O)C1CCC1)c1c(N)n(CCC)c(=O)[nH]c1=O`: the “hERG current change (%, negative = inhibition) at 10uM” value is recorded as -1.71%. For `CCOc1ccccc1N(CC(=O)Nc1ccc(OC)cc1)S(=O)(=O)c1ccccc1` the value was 6.3%; for `Cc1nn(-c2ccccc2)c(N2CCCC2)c1/C=N/Nc1ccc(S(N)(=O)=O)cc1[N+](=O)[O-]`, 1.15%; for `CCOC(=O)N1CCC(N2CCCC(C(=O)c3cccc(OC(C)C)c3)C2)CC1` (stereo not shown), -76.8%.

For `CCOC(=O)c1csc(NC(=O)CSc2nnnn2CC)n1`, the “hERG current change (%, negative = inhibition) at 10uM” value is -2.37%. For `O=C(Nc1ccccc1Cl)c1ccc(-n2cccn2)c([N+](=O)[O-])c1` the value was 9.46%; for `O=c1[nH]c2ccccc2nc1-c1ccc(Cl)cc1`, 19.8%. On to `COc1ccc(NC(=O)C2CC(=O)N/C(=N/NC(=O)c3ccc(Cl)cc3)S2)cc1` (stereo not shown), for which the “hERG current change (%, negative = inhibition) at 10uM” value is reported as -5.77%.

Consider `Cn1c(SCC(=O)C(C)(C)C)nnc1-c1ccccn1`, for which the “hERG current change (%, negative = inhibition) at 10uM” value is -2.93%.

As to `COc1ccc(-c2nnc(NC(=O)c3ccc(S(=O)(=O)N4CCCc5ccccc54)cc3)o2)cc1`, the “hERG current change (%, negative = inhibition) at 10uM” value came to 0.175%. As for `CCc1ccc(-c2nc(CN3CCC(C(=O)NCCN(CC)c4ccccc4)CC3)c(C)o2)cc1`, the “hERG current change (%, negative = inhibition) at 10uM” value was -69.5%. For `Cc1ccc(C(=O)N2CCSCC2)cc1`, the “hERG current change (%, negative = inhibition) at 10uM” value is on record as -11.3%. To `Cc1noc(C)c1C(=O)OC(C)C(=O)Nc1ccc(C(N)=O)cc1` (stereo not shown) belongs -10.5%; to `O=[N+]([O-])CC(=Nc1ccc(Cl)cc1)N/N=C\c1oc(O)c2ccccc12`, 5.58%. `COc1ccc(-c2cc(C(=O)Nc3ccc(S(=O)(=O)Nc4onc(C)c4C)cc3)c3ccccc3n2)cc1`: the “hERG current change (%, negative = inhibition) at 10uM” value is given as 16%.

`Cc1cc(N2CCN(C)CC2)nc2ccc(NC(=S)N3CCN(c4cccc(Cl)c4)CC3)cc12`: the “hERG current change (%, negative = inhibition) at 10uM” value stood at 15%.

As to `Cc1ccc2[nH]c(C(=O)N3CCN(C(c4ccccc4)c4ccccc4)CC3)cc2c1`, the “hERG current change (%, negative = inhibition) at 10uM” value was found to be 19.7%. For the molecule `Cc1cccc(NC(=O)CN2C(=O)NC(C)(c3ccc4ccccc4c3)C2=O)n1` (stereo not shown), the “hERG current change (%, negative = inhibition) at 10uM” value was -45%. Consider `CN(C1CCCC1)C1CCN(C(=S)Nc2cc(F)cc(F)c2)CC1`, for which the “hERG current change (%, negative = inhibition) at 10uM” value is given as -42%. For `Nc1nc(Nc2cccc(Cl)c2)nc(NCc2ccco2)c1[N+](=O)[O-]` the value was 14.2%. For `Cc1ccc(S(=O)(=O)Nc2ccc(-c3nnc(SCc4ccccc4Cl)o3)cc2)cc1` the value was 12.3%; for `O=C(OCCCN1CCOCC1)c1ccc(O)c(O)c1`, 9.06%. With `CN(C)c1ccc(C(C(=O)NCC2CCCO2)N(C(=O)c2snc(C(N)=O)c2N)c2ccc3c(c2)OCO3)cc1` (stereo not shown), the “hERG current change (%, negative = inhibition) at 10uM” value is 8.72%. On to `O=C(CN1C(=O)C2CC=CCC2C1=O)NCC(=O)Nc1ccc(F)c(F)c1F` (stereo not shown), for which the “hERG current change (%, negative = inhibition) at 10uM” value came out at 7.55%. Consider `Cc1ccc(CSc2nnc(-c3ccccn3)n2C)cc1`, for which the “hERG current change (%, negative = inhibition) at 10uM” value is listed as -3.39%.

`Nc1nc(SCC(=O)c2ccc(F)cc2)n[nH]1`: the “hERG current change (%, negative = inhibition) at 10uM” value came to 15.5%.

As for `COc1cc(CC(=O)OC2CCOC2=O)cc(OC)c1OC` (stereo not shown), the “hERG current change (%, negative = inhibition) at 10uM” value is listed as 12.7%. To `S=C(c1ccc(Cl)cc1)N1CCN(Cc2ccccc2)CC1` belongs -26.8%; to `Cc1ccc(S(=O)(=O)N2CCN(CC3CC4C=CC3C4)CC2)cc1.O=C(O)C(=O)O` (stereo not shown), 2.29%. To `CCCNC(=O)C(Cc1ccc(I)cc1)NC(=O)c1ccc(C#N)cc1` (stereo not shown) belongs 8.48%; to `FC(F)(F)c1nc2cc3nc4ccccc4[nH]c3cc2n1`, 15.9%; to `CC(=O)c1cccc(NC(=O)c2cc(=O)c3ccccc3o2)c1`, 12.3%. With `CC1(C)Cc2cccc(OCC(=O)OCC(=O)Nc3cccc(S(N)(=O)=O)c3)c2O1`, the “hERG current change (%, negative = inhibition) at 10uM” value is 2.33%. With `C=CSc1sc(Cl)c(N(C)C)c1[N+](=O)[O-]`, the “hERG current change (%, negative = inhibition) at 10uM” value is on record as 16.8%. Consider `Cc1ccc(/C=N/n2c(COc3ccccc3)n[nH]c2=S)cc1`, for which the “hERG current change (%, negative = inhibition) at 10uM” value is 24.3%.

As to `CC1(C)CC(CC(=O)O)C(=O)O1` (stereo not shown), the “hERG current change (%, negative = inhibition) at 10uM” value is on record as 7.6%. As to `COCc1cc(C)nc(N2CCN(Cc3ccccc3)CC2)c1C#N`, the “hERG current change (%, negative = inhibition) at 10uM” value is given as -36.7%. `COc1ccccc1OC(C)C(=O)Nc1ccc2c(c1)n(C)c(=O)n2C` (stereo not shown): the “hERG current change (%, negative = inhibition) at 10uM” value was 13.2%.

Consider `CCN(CC)S(=O)(=O)c1ccc(C)c(NC(=O)COC(=O)CCC(=O)c2cccs2)c1`, for which the “hERG current change (%, negative = inhibition) at 10uM” value was -2.82%.

`Cc1ccc(/C=N/NC(=O)c2ccccn2)o1`: the “hERG current change (%, negative = inhibition) at 10uM” value is -15.5%.

On to `CN(C)CCN(C(=O)c1ccc2c(c1)CCCC2)c1nc2c(F)cccc2s1.Cl`, for which the “hERG current change (%, negative = inhibition) at 10uM” value was -14.6%.

In the case of `COc1cccc(/C=C2\SC(=S)N(CCCC(=O)N3CCCCC3)C2=O)c1`, the “hERG current change (%, negative = inhibition) at 10uM” value is 8.72%.
